Data on 54 molecules can be found in ChEMBL document CHEMBL4888484, “Replenishing the malaria drug discovery pipeline: Screening and hit evaluation of the MMV Hit Generation Library 1 (HGL1) against asexual blood stage Plasmodium falciparum ,using a nano luciferase reporter read-out” (2022).

In all, about 150,000 compounds went through this assay and about 540 (0.36%) showed an effect of 50% or more. The list shows a part of the results.

In the assay the test system is Plasmodium falciparum. Kind of assay: Primary screen in NF54 nanoGlo assay, in single point, at 2uM, 72h; a lower Z score goes with more inhibition. The assay is classed as functional, Erythrocyte. As to conditions: timepoint 72 hour.
For the molecule `Cc1cnc(CNC(=O)c2cc(C)nc(C)c2)cn1`, the % Inhibition (usually the change of the read-out against control, counted positive when it falls) is -5% and the Z score was determined as 0.61.

Regarding `CNC(=O)[C@@H](NC(=O)c1c(C)nsc1NC)C(C)C`, the “% Inhibition” value is -1% and the Z score is on record as 0.11.

Consider `CN(C)c1nsc(N[C@H]2C[C@H](c3nnc(CO)n3C3CC3)C2)n1`, for which the “% Inhibition” value was found to be 3% and the Z score is given as -0.48.

As to `COC(=O)[C@H](C)N1CCc2c1cccc2C(F)(F)F`, the “% Inhibition” value is -1% and the Z score is reported as 0.08.

For `O=C(c1ccccc1OC(F)F)N1CCN(Cc2c[nH]cn2)CC1`, the “% Inhibition” value was -7% and the Z score came out at 1.3.

With `O=C([C@@H]1COc2cc(S(=O)(=O)Nc3ccc(F)cc3)ccc2O1)N1CCOCC1`, the “% Inhibition” value was -12% and the Z score is on record as 1.26.

As to `CCOC(=O)C1=C(c2ccccc2)S/C(=C2/C(=S)C(C)(C)N(C(C)=O)c3cc(OC)ccc32)S1`, the “% Inhibition” value worked out at 2% and the Z score is reported as -0.31.

On to `C[C@H]1CCN(S(=O)(=O)Nc2cccc3[nH]ncc23)C1`, for which the “% Inhibition” value was -3% and the Z score was found to be 0.49.

Take `COC1CCC(NC[C@H]2COc3ccccc3O2)CC1` (stereo partly drawn): the “% Inhibition” value is reported as -7% and the Z score is recorded as 1.18.

For the molecule `Cc1csc([C@H]2NC3(CCCC3)C(=O)N2CC(C)C)n1`, the “% Inhibition” value was -3% and the Z score was 0.31.

In the case of `CN(c1ccc(Br)cc1F)S(=O)(=O)N1CCCC1`, the “% Inhibition” value is reported as -8% and the Z score stood at 0.9.

In the case of `FC(F)(F)c1ccnc(N2CCC[C@@H]2Cn2cncn2)n1`, the “% Inhibition” value was -2% and the Z score is listed as 0.28.

With `C[C@H](Oc1ccc(Br)cc1)C(=O)Nc1nc(-c2ccccn2)cs1`, the “% Inhibition” value is 1% and the Z score was -0.12.

Turning to `Cc1ccccc1OCC(=O)N1CCC[C@@H]1C(=O)O`, the “% Inhibition” value is -14% and the Z score is 1.61.

Take `Cc1ccccc1C(NC(=O)NC1CCN(CC2CCOC2)CC1)C(C)C` (stereo not drawn): the “% Inhibition” value is listed as -9% and the Z score was found to be 1.15.

For `CC(C)CN1CC2(CCN(C(=O)[C@H](F)c3ccccc3)CC2)CC1=O`, the “% Inhibition” value came out at 3% and the Z score was -0.7.

As for `CN(CC1CCCC1)C(=O)c1ccc(S(=O)(=O)NCCO)s1`, the “% Inhibition” value is given as -1% and the Z score was determined as 0.13.

In the case of `Cc1ccc(F)cc1CN1CCN2CCOC[C@@H]2C1`, the “% Inhibition” value worked out at 6% and the Z score is -0.74.

Take `N[C@H]1CCN(C(=O)COCc2ccccc2Cl)C1`: the “% Inhibition” value was -9% and the Z score stood at 0.88.

`CCC(C)(C)N(C)C(=O)CCc1cccs1`: the “% Inhibition” value is -7% and the Z score is 0.95.

With `O=C(c1coc(-c2cccnc2)n1)N1CCC[C@@]1(c1ccccc1)C(F)(F)F`, the “% Inhibition” value is -1% and the Z score stood at 0.2.

Consider `O=C(c1ccc(F)cc1)N1CC[C@H](CCOc2ccc(F)cc2)C1`, for which the “% Inhibition” value is on record as -18% and the Z score is on record as 3.43.

Turning to `O=C1CC[C@@]2(CCCN(C(=O)c3ccsc3)C2)CN1CCc1c[nH]cn1`, the “% Inhibition” value is -14% and the Z score was 1.37.

As for `Cc1ccnc(NC(=O)CC2CC3CCC2C3)c1` (stereo not drawn), the “% Inhibition” value is -2% and the Z score amounted to 0.43.

As to `O=S(=O)(Nc1cc(-c2ccncc2)no1)c1ccc(Br)cc1`, the “% Inhibition” value was -5% and the Z score is recorded as 0.47.

With `Cc1cc(=O)n(CC(=O)NCc2ccc(Cl)cc2)c(N2CCc3ccccc3C2)n1`, the “% Inhibition” value is reported as 5% and the Z score is on record as -0.73.

As to `COC[C@H](NCC(=O)N(C)C)c1ccc(C)o1`, the “% Inhibition” value is -6% and the Z score came out at 0.7.

On to `COC[C@H](CO)NC(=O)Nc1cc(-c2ccoc2C)on1`, for which the “% Inhibition” value came to 13% and the Z score is -1.65.

For `COc1cc(=O)n2c(c1C(=O)NC1CCN(Cc3ccccc3)CC1)CCCCC2`, the “% Inhibition” value was -8% and the Z score turned out to be 0.91.

As for `CC[C@H](C)NCCOCCOc1ccc(C)cc1`, the “% Inhibition” value is recorded as -9% and the Z score was 1.21.

Regarding `CC(C)c1nnc(CN2CCC[C@H]2c2ncn[nH]2)n1C`, the “% Inhibition” value is recorded as -1% and the Z score was found to be 0.1.

With `N#Cc1ccc(CN2C[C@@H]3C[C@H]2C(=O)NC[C@H]2O[C@H](CCOc4cc(C5CCCC5)ccc4C(=O)N3)CC[C@@H]2O)cc1`, the “% Inhibition” value is -2% and the Z score is 0.31.

For `COc1cccc(-c2nc3ccc(-c4cccc(C(F)(F)F)c4)cn3c2CN2CCN(C(=O)C3CCCC3)CC2)c1`, the “% Inhibition” value was determined as 0% and the Z score is on record as 0.02.

In the case of `Cc1cc(C)nc(NC(=O)N2C[C@@H](C)[C@](C)(CN)C2)c1`, the “% Inhibition” value is listed as -12% and the Z score is 1.14.

For the molecule `Cc1cccc(N2CCN(c3ccc(C(=O)O)cc3NS(=O)(=O)c3ccccc3)C[C@@H]2C)c1`, the “% Inhibition” value is recorded as -4% and the Z score is listed as 0.42.

`CCc1noc(C2CCC(Nc3cnn(CC(=O)OC)c3C)CC2)n1` (stereo not drawn): the “% Inhibition” value is listed as -17% and the Z score stood at 1.87.

Take `CN(c1ncc(Cl)cc1Cl)C1CC(N)C1` (stereo not drawn): the “% Inhibition” value is -1% and the Z score is 0.06.

Take `Fc1ccc(-c2cn[nH]c2[C@H]2CCCN(C3CCCC3)C2)cc1`: the “% Inhibition” value was found to be 4% and the Z score was -0.56.

For the molecule `CCOC(=O)[C@H]1CCCN(c2nc(Nc3ccc(F)cc3)c3nn[nH]c3n2)C1`, the “% Inhibition” value is -10% and the Z score was 1.62.

With `Cc1cc(C)cc(NC(=O)c2ccc(-n3nnc4cccnc43)c(C)c2)c1`, the “% Inhibition” value came out at 8% and the Z score is on record as -1.39.

Regarding `O=C(Cc1cccc2ccccc12)Nc1sc2c(c1C(=O)O)CCC2`, the “% Inhibition” value is recorded as -7% and the Z score is given as 0.9.

In the case of `CC[C@H]1C=CCN1C(=O)NCCN(C)CCc1ccccc1`, the “% Inhibition” value is recorded as -15% and the Z score came out at 1.6.

Consider `CCS(=O)(=O)NCc1cccn1Cc1ccccc1`, for which the “% Inhibition” value is -4% and the Z score is listed as 0.52.

`Cn1cc(C(=O)N2CCc3ccccc3C2)nn1`: the “% Inhibition” value was -20% and the Z score was found to be 2.55.

As for `CC(C)C(=O)N1CCc2ccc(OCc3ccc(C(=O)NCCN4CCCC4)o3)cc2[C@@H]1c1ccccc1`, the “% Inhibition” value was -10% and the Z score worked out at 1.19.

On to `COc1c(F)cccc1CN1CCn2nc(CNc3ncccn3)cc2C1`, for which the “% Inhibition” value is given as -7% and the Z score is listed as 1.44.

`Cn1cc(CC2CCCC2Nc2ccc3nccnc3n2)cn1` (stereo not drawn): the “% Inhibition” value is listed as -16% and the Z score was 2.56.

Take `CC(F)(F)CC(=O)N1CC2(CCOC2)C1`: the “% Inhibition” value is recorded as -8% and the Z score is listed as 1.03.

Consider `CCC(C)C(=O)N1CCC(C2(Cc3ccccc3C)NC(=O)N(CCCN(C)C)C2=O)CC1` (stereo not drawn), for which the “% Inhibition” value is reported as -1% and the Z score is 0.15.

On to `Cc1cccc(-c2ccc(CN3CCN(C)CC3)cn2)c1C`, for which the “% Inhibition” value is -2% and the Z score was determined as 0.34.

As to `CCO[C@H]1CN(CC)C[C@@H]1NC(=O)c1cnoc1-c1ccccc1`, the “% Inhibition” value stood at 3% and the Z score was -0.64.

For `CCN1CCC[C@@H]1CNC(=O)Nc1ccc(Cl)cc1`, the “% Inhibition” value is given as -3% and the Z score turned out to be 0.47.

On to `Cc1nc([C@@H]2COCCN2S(=O)(=O)c2cc(Cl)cc(Cl)c2)no1`, for which the “% Inhibition” value is recorded as -10% and the Z score came to 1.32.

In the case of `CC(C)(C)n1cc(C#N)cc1NC(=O)c1cc(S(C)(=O)=O)ccc1Cl`, the “% Inhibition” value is reported as -15% and the Z score is listed as 1.53.
